This is one part of the list. The list includes weakly bound sequences.
target: T1, MBP-FoxP3dN (UniProt Q99JB6); experiment: PD-seq (MBP pull-down with sequencing); conditions: 20 mM Tris-HCl pH 7.5, 100 mM NaCl, 1.5 mM MgCl2, 0.4 uM protein, 0.1 uM dsDNA library, 30 min, room temperature, amylose pull-down; high values mean tight binding; double strand, one strand shown
T1 sequence: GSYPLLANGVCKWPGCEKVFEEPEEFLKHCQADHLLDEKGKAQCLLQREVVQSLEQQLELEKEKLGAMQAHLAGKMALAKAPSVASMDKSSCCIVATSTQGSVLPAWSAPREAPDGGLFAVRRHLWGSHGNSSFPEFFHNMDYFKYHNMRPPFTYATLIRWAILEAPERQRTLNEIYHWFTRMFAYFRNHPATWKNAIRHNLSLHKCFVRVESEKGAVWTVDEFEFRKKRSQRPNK

Sequence | binding signal (RPM ratio (pull-down/input))
GATGATTGTTCTCCCAGCTGATGAATTGGTTTAGTCGAGTAAACAAATTTTCCTAATCTTTCTGTTCAAGCGCCATCTAC | 2.22
GATGATTGTTCTCCCAGCTGATGAATTTTCAAAATCGAGTAAACAAATTTTCCTAATCTTTCTGTTCAAGCGCCATCTAC | 0.212
GATGATTGTTCTCCCAGCTGATGAATTACGCACATCGAGTAAACAAATTTTCCTAATCTTTCTGTTCAAGCGCCATCTAC | 1.12
GATGATTGTTCTCCCAGCTGATGAATTGGTGATATCGAGTAAACAAATTTTCCTAATCTTTCTGTTCAAGCGCCATCTAC | 0.67
GATGATTGTTCTCCCAGCTGATGAATTGCGACGCTCGAGTAAACAAATTTTCCTAATCTTTCTGTTCAAGCGCCATCTAC | 0.891
GATGATTGTTCTCCCAGCTGATGAATTCATCCGTTCGAGTAAACAAATTTTCCTAATCTTTCTGTTCAAGCGCCATCTAC | 0.347
GATGATTGTTCTCCCAGCTGATGAATTGTTCATGTCGAGTAAACAAATTTTCCTAATCTTTCTGTTCAAGCGCCATCTAC | 0.5
GATGATTGTTCTCCCAGCTGATGAATTTGTATCCTCGAGTAAACAAATTTTCCTAATCTTTCTGTTCAAGCGCCATCTAC | 5.4
GATGATTGTTCTCCCAGCTGATGAATTTGCCACATCGAGTAAACAAATTTTCCTAATCTTTCTGTTCAAGCGCCATCTAC | 2.39
GATGATTGTTCTCCCAGCTGATGAATTCTCAATTTCGAGTAAACAAATTTTCCTAATCTTTCTGTTCAAGCGCCATCTAC | 0.298
GATGATTGTTCTCCCAGCTGATGAATTCTGGTTTTCGAGTAAACAAATTTTCCTAATCTTTCTGTTCAAGCGCCATCTAC | 0.747
GATGATTGTTCTCCCAGCTGATGAATTCGCGAAATCGAGTAAACAAATTTTCCTAATCTTTCTGTTCAAGCGCCATCTAC | 0.371
GATGATTGTTCTCCCAGCTGATGAATTAACTTCGTCGAGTAAACAAATTTTCCTAATCTTTCTGTTCAAGCGCCATCTAC | 0.263
GATGATTGTTCTCCCAGCTGATGAATTCATGGAGTCGAGTAAACAAATTTTCCTAATCTTTCTGTTCAAGCGCCATCTAC | 0.277
GATGATTGTTCTCCCAGCTGATGAATTGATGGTTTCGAGTAAACAAATTTTCCTAATCTTTCTGTTCAAGCGCCATCTAC | 1.09
GATGATTGTTCTCCCAGCTGATGAATTAGTTAGTTCGAGTAAACAAATTTTCCTAATCTTTCTGTTCAAGCGCCATCTAC | 4.22
GATGATTGTTCTCCCAGCTGATGAATTTCTTTATTCGAGTAAACAAATTTTCCTAATCTTTCTGTTCAAGCGCCATCTAC | 1.53
GATGATTGTTCTCCCAGCTGATGAATTCTCTCACTCGAGTAAACAAATTTTCCTAATCTTTCTGTTCAAGCGCCATCTAC | 0.266
GATGATTGTTCTCCCAGCTGATGAATTATATGCATCGAGTAAACAAATTTTCCTAATCTTTCTGTTCAAGCGCCATCTAC | 1.56
GATGATTGTTCTCCCAGCTGATGAATTGGCGAGCTCGAGTAAACAAATTTTCCTAATCTTTCTGTTCAAGCGCCATCTAC | 0.276

Sequence | binding signal (RPM ratio (pull-down/input))
GATGATTGTTCTCCCAGCTGATGAATTCGAGTCCTCGAGTAAACAAATTTTCCTAATCTTTCTGTTCAAGCGCCATCTAC | 0.547
GATGATTGTTCTCCCAGCTGATGAATTCGGACGCTCGAGTAAACAAATTTTCCTAATCTTTCTGTTCAAGCGCCATCTAC | 0.343
GATGATTGTTCTCCCAGCTGATGAATTCGCTTCGTCGAGTAAACAAATTTTCCTAATCTTTCTGTTCAAGCGCCATCTAC | 0.562
GATGATTGTTCTCCCAGCTGATGAATTCAGGGAATCGAGTAAACAAATTTTCCTAATCTTTCTGTTCAAGCGCCATCTAC | 0.177
GATGATTGTTCTCCCAGCTGATGAATTGACGGACTCGAGTAAACAAATTTTCCTAATCTTTCTGTTCAAGCGCCATCTAC | 0.274
GATGATTGTTCTCCCAGCTGATGAATTGGTAAACTCGAGTAAACAAATTTTCCTAATCTTTCTGTTCAAGCGCCATCTAC | 0.845
GATGATTGTTCTCCCAGCTGATGAATTATATCTATCGAGTAAACAAATTTTCCTAATCTTTCTGTTCAAGCGCCATCTAC | 0.73
GATGATTGTTCTCCCAGCTGATGAATTTGTAAAATCGAGTAAACAAATTTTCCTAATCTTTCTGTTCAAGCGCCATCTAC | 0.357
GATGATTGTTCTCCCAGCTGATGAATTGCGCGTCTCGAGTAAACAAATTTTCCTAATCTTTCTGTTCAAGCGCCATCTAC | 4.75
GATGATTGTTCTCCCAGCTGATGAATTATGGAATTCGAGTAAACAAATTTTCCTAATCTTTCTGTTCAAGCGCCATCTAC | 0.747
GATGATTGTTCTCCCAGCTGATGAATTAATCCTGTCGAGTAAACAAATTTTCCTAATCTTTCTGTTCAAGCGCCATCTAC | 0.311
GATGATTGTTCTCCCAGCTGATGAATTAACTAGTTCGAGTAAACAAATTTTCCTAATCTTTCTGTTCAAGCGCCATCTAC | 0.318
GATGATTGTTCTCCCAGCTGATGAATTTTGATCGTCGAGTAAACAAATTTTCCTAATCTTTCTGTTCAAGCGCCATCTAC | 0.454
GATGATTGTTCTCCCAGCTGATGAATTACATCCGTCGAGTAAACAAATTTTCCTAATCTTTCTGTTCAAGCGCCATCTAC | 0.431
GATGATTGTTCTCCCAGCTGATGAATTCTTAGAATCGAGTAAACAAATTTTCCTAATCTTTCTGTTCAAGCGCCATCTAC | 0.196
GATGATTGTTCTCCCAGCTGATGAATTAATCGTGTCGAGTAAACAAATTTTCCTAATCTTTCTGTTCAAGCGCCATCTAC | 0.74
GATGATTGTTCTCCCAGCTGATGAATTACTCCTCTCGAGTAAACAAATTTTCCTAATCTTTCTGTTCAAGCGCCATCTAC | 0.313
GATGATTGTTCTCCCAGCTGATGAATTCCAAACGTCGAGTAAACAAATTTTCCTAATCTTTCTGTTCAAGCGCCATCTAC | 0.309
GATGATTGTTCTCCCAGCTGATGAATTCTCCAACTCGAGTAAACAAATTTTCCTAATCTTTCTGTTCAAGCGCCATCTAC | 0.239
GATGATTGTTCTCCCAGCTGATGAATTATTGCCCTCGAGTAAACAAATTTTCCTAATCTTTCTGTTCAAGCGCCATCTAC | 0.91

— publication PMC12820563
